Measured values reported in PMC6446940 (ChemMedChem, 2018).

Tested on: TZM-bl cells
Assay: Cytotoxicity
Type: cell-based
Conditions: compared with NBD-14113

Cc1nc(C(CN)NC(=O)c2ccc(-c3ccc4c(c3)OCO4)[nH]2)sc1CO (stereo not shown) [NBD-14110, N-(2-amino-1-(5-(hydroxymethyl)-4-methylthiazol-2-yl)ethyl)-5-(benzo[d][1,3]dioxol-5-yl)-1H-pyrrole-2-carboxamide]
improvement in cytotoxicity (CC50) compared with the control: ~ 1.7 fold
